We go through 153 variants from a collection of fitness landscapes (doi:10.1126/science.1257360).

B1: PhoQ; a variant is named by its letters at X, in order, P23837 (parent)
chain: MKKLLRLFFPLSLRVRFLLATAAVVLVLSLAYGMVALIGYSVSFDKTTFRLLRGESNLFYTLAKWENNKLHVELPENIDKQSPTMTLIYDENGQLLWAQRDVPWLMKMIQPDWLKSNGFHEIEADVNDTSLLLSGDHSIQQQLQEVREDDDDAEMTHSVAVNVYPATSRMPKLTIVVVDTIPVELKSSYMVWSWFIYVLSANLLLVIPLLWVAAWWSLRPIEALAKEVRELEEHNRELLNPATTRELTSLVRNLNRLLKSERERYDKYRTTLTDLTHSLKTPLXXLQXXLRSLRSEKMSVSDAEPVMLEQISRISQQIGYYLHRASMRGGTLLSRELHPVAPLLDNLTSALNKVYQRKGVNISLDISPEISFVGEQNDFVEVMGNVLDNACKYCLEFVEISARQTDEHLYIVVEDDGPGIPLSKREVIFDRGQRVDTLRPGQGVGLAVAREITEQYEGKIVAGESMLGGARMEVIFGRQHSAPKDE

The other results are listed elsewhere or left out.

In this test the parent is B1. The experiment in a line: enrichment ratio after two sorts for PhoP signalling (ratio (wild type AVST 3.29)); higher = more functional. The settings on record: with PhoP (E. coli).
Consider SYMD, for which the enrichment ratio was no more than 0.25.

For PWKP, the enrichment ratio was no more than 0.25.

For PSKN, the enrichment ratio is no more than 0.25.

Consider WHVQ, for which the enrichment ratio is no more than 0.25.

Turning to VEHR, the enrichment ratio is no more than 0.25.

As for HDER, the enrichment ratio is no more than 0.25.

With NPWE, the enrichment ratio was no more than 0.25.

Consider REQH, for which the enrichment ratio was no more than 0.25.

As to STWI, the enrichment ratio was no more than 0.25.

Take KGVG: the enrichment ratio was no more than 0.25.

For RWAR, the enrichment ratio was no more than 0.25.

Turning to HKTG, the enrichment ratio is no more than 0.25.

Consider NKGN, for which the enrichment ratio is no more than 0.25.

Regarding YVCP, the enrichment ratio is no more than 0.25.

As to PNGH, the enrichment ratio was no more than 0.25.

Turning to NHAS, the enrichment ratio is no more than 0.25.

For the variant SNQC, the enrichment ratio is 1.09.

As to KGNM, the enrichment ratio is no more than 0.25.

Regarding HKNN, the enrichment ratio was no more than 0.25.

For the variant YNLN, the enrichment ratio is no more than 0.25.

As to QFHD, the enrichment ratio was no more than 0.25.

As for YMYS, the enrichment ratio was no more than 0.25.

Regarding PIKC, the enrichment ratio is no more than 0.25.

PAEH: the enrichment ratio was no more than 0.25.

Turning to EPIP, the enrichment ratio was no more than 0.25.

As for YQCN, the enrichment ratio was found to be 0.346.

In the case of PREK, the enrichment ratio is no more than 0.25.

As for MQQG, the enrichment ratio is no more than 0.25.

For the variant LQVA, the enrichment ratio was no more than 0.25.

FMWW: the enrichment ratio is no more than 0.25.

Consider AQDT, for which the enrichment ratio is no more than 0.25.

As for YRIY, the enrichment ratio is no more than 0.25.

For the variant SRIK, the enrichment ratio was no more than 0.25.

On to SAIE, for which the enrichment ratio was no more than 0.25.

For the variant RDWP, the enrichment ratio is no more than 0.25.

For ATIN, the enrichment ratio amounted to 11.9.

For the variant WCLY, the enrichment ratio was no more than 0.25.

For the variant TIWG, the enrichment ratio was no more than 0.25.

With YISH, the enrichment ratio turned out to be 0.528.

Consider MMHG, for which the enrichment ratio was no more than 0.25.

Take PYGI: the enrichment ratio is no more than 0.25.

Take WHGY: the enrichment ratio is no more than 0.25.

Take DGTL: the enrichment ratio is no more than 0.25.

On to AEGY, for which the enrichment ratio came to 43.4.

In the case of WQPF, the enrichment ratio is no more than 0.25.

Regarding TYWT, the enrichment ratio was no more than 0.25.

On to LFWL, for which the enrichment ratio is no more than 0.25.

Regarding NSAD, the enrichment ratio is no more than 0.25.

On to NDAY, for which the enrichment ratio is no more than 0.25.

As for SSVM, the enrichment ratio amounted to 17.6.

In the case of DYGG, the enrichment ratio is no more than 0.25.

Take NPSQ: the enrichment ratio is no more than 0.25.

On to GSNS, for which the enrichment ratio is no more than 0.25.

As for LIVG, the enrichment ratio was no more than 0.25.

For AFRY, the enrichment ratio is no more than 0.25.

MDQT: the enrichment ratio was no more than 0.25.

Consider HMSS, for which the enrichment ratio is no more than 0.25.

Consider RCCV, for which the enrichment ratio is no more than 0.25.

Regarding HCCN, the enrichment ratio is no more than 0.25.

Regarding DQAF, the enrichment ratio is no more than 0.25.

Consider MSWR, for which the enrichment ratio was no more than 0.25.

On to LKGA, for which the enrichment ratio is no more than 0.25.

On to QFKP, for which the enrichment ratio is no more than 0.25.

As for PNMH, the enrichment ratio was no more than 0.25.

As to RIDH, the enrichment ratio is no more than 0.25.

As for LTWP, the enrichment ratio is no more than 0.25.

RSPV: the enrichment ratio came to 0.604.

As for LFPT, the enrichment ratio is no more than 0.25.

HNCY: the enrichment ratio was no more than 0.25.

With SVPL, the enrichment ratio worked out at 10.6.

For the variant VMRT, the enrichment ratio is no more than 0.25.

Consider HSTL, for which the enrichment ratio came to 5.46.

As to IPIK, the enrichment ratio is no more than 0.25.

YEPY: the enrichment ratio is no more than 0.25.

On to VWCI, for which the enrichment ratio was no more than 0.25.

For YAVF, the enrichment ratio is no more than 0.25.

For the variant AMQE, the enrichment ratio was no more than 0.25.

Regarding KYMQ, the enrichment ratio is no more than 0.25.

Turning to NASK, the enrichment ratio is no more than 0.25.

With MFSY, the enrichment ratio is no more than 0.25.

Consider QGYH, for which the enrichment ratio is no more than 0.25.

As for SHDH, the enrichment ratio is no more than 0.25.

Regarding LNED, the enrichment ratio is no more than 0.25.

With YQRF, the enrichment ratio is no more than 0.25.

Take RYRT: the enrichment ratio was no more than 0.25.

On to MIAL, for which the enrichment ratio stood at 8.8.

Turning to HDGH, the enrichment ratio is no more than 0.25.

On to AKKQ, for which the enrichment ratio was no more than 0.25.

With QAEL, the enrichment ratio is no more than 0.25.

With IKGL, the enrichment ratio is no more than 0.25.

For YYPI, the enrichment ratio was no more than 0.25.

LRLP: the enrichment ratio was no more than 0.25.

On to CLSH, for which the enrichment ratio is no more than 0.25.

With MYST, the enrichment ratio was no more than 0.25.

For the variant MDRM, the enrichment ratio was no more than 0.25.

Turning to MKTH, the enrichment ratio was no more than 0.25.

In the case of ALPD, the enrichment ratio is no more than 0.25.

In the case of LFFA, the enrichment ratio turned out to be 0.765.

Take PALT: the enrichment ratio is no more than 0.25.

IHDA: the enrichment ratio was no more than 0.25.

Turning to YSDE, the enrichment ratio was no more than 0.25.

For VIMF, the enrichment ratio is no more than 0.25.

On to DWKC, for which the enrichment ratio is no more than 0.25.

As for AWNF, the enrichment ratio is no more than 0.25.

For HHTE, the enrichment ratio is no more than 0.25.

For the variant TRVK, the enrichment ratio is no more than 0.25.

PTFK: the enrichment ratio is no more than 0.25.

Take TPAF: the enrichment ratio was no more than 0.25.

On to GYHD, for which the enrichment ratio was no more than 0.25.

Consider PMNL, for which the enrichment ratio is no more than 0.25.

For the variant VKDG, the enrichment ratio is no more than 0.25.

Regarding IVYC, the enrichment ratio was no more than 0.25.

With INMW, the enrichment ratio was no more than 0.25.

In the case of RRRV, the enrichment ratio was no more than 0.25.

VSRL: the enrichment ratio is no more than 0.25.

In the case of QPYS, the enrichment ratio is no more than 0.25.

Take MVIK: the enrichment ratio was no more than 0.25.

As for FRWV, the enrichment ratio is no more than 0.25.

As for PAGP, the enrichment ratio was no more than 0.25.

For NHII, the enrichment ratio was no more than 0.25.

For the variant AQAP, the enrichment ratio is no more than 0.25.

Turning to DQRT, the enrichment ratio was no more than 0.25.

IPIE: the enrichment ratio is no more than 0.25.

For the variant FRAQ, the enrichment ratio was no more than 0.25.

On to LTWL, for which the enrichment ratio is no more than 0.25.

On to WGRE, for which the enrichment ratio was no more than 0.25.

In the case of VAVI, the enrichment ratio is no more than 0.25.

As to KVQE, the enrichment ratio is no more than 0.25.

Regarding KFRP, the enrichment ratio was no more than 0.25.

For ISFM, the enrichment ratio worked out at 0.832.

As to GNNC, the enrichment ratio is no more than 0.25.

Regarding HGPE, the enrichment ratio is no more than 0.25.

As to GYTG, the enrichment ratio is no more than 0.25.

For ARMP, the enrichment ratio was no more than 0.25.

Take MGVM: the enrichment ratio worked out at 5.79.

For TKVP, the enrichment ratio is no more than 0.25.

On to WKFS, for which the enrichment ratio was no more than 0.25.

As for HLFQ, the enrichment ratio was no more than 0.25.

Turning to YHHH, the enrichment ratio is no more than 0.25.

In the case of HTEK, the enrichment ratio is no more than 0.25.

As for TFYK, the enrichment ratio was no more than 0.25.

As for NENL, the enrichment ratio was no more than 0.25.

Take VKEM: the enrichment ratio is no more than 0.25.

RDER: the enrichment ratio is no more than 0.25.

With KVDA, the enrichment ratio is no more than 0.25.

Consider IWTW, for which the enrichment ratio is no more than 0.25.

In the case of WAVG, the enrichment ratio was no more than 0.25.

For RLPA, the enrichment ratio was no more than 0.25.

For HTGQ, the enrichment ratio is no more than 0.25.

In the case of PDDP, the enrichment ratio was no more than 0.25.

HRAI: the enrichment ratio is no more than 0.25.

As to MPIS, the enrichment ratio is no more than 0.25.

As for VAFV, the enrichment ratio was no more than 0.25.
